PubChem BioAssay (Tox21)
The inconclusive results got no clear call from the source; some entries with a clear call stand among them for comparison. For part of these data: A potency beside an inconclusive call is a rough fit, not a confirmed value. Activity calls are given as the source filed them. Unless noted, calls follow the shape of the full dose curve.

Tests used:
[1] = target: Peroxisome proliferator-activated receptor gamma (Homo sapiens) (UniProt P37231); test: qHTS assay to identify small molecule antagonists of the peroxisome proliferator-activated receptor gamma (PPARg) signaling pathway (AID 743191); settings: HEK293H PPARg-UAS-bla, beta-lactamase ratio, antagonist, 17 h; ratio activity, negative = inhibition: at 62.6 µM (top of the series) unless noted; also: nearly all actives have a fitted effect of over 30% in size; also: potency is read from the fitted curve at half-maximal effect; as to ratio activity, negative = inhibition: % is scaled to controls: 0 for no effect and ±100 for the full control effect
Outline: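 Beta-lactamase reporter under UAS control in HEK293H PPARg-bla cells; compound treatment 17 h at 37C. Read-out: fluorescence intensity after 1 h room-temperature incubation with LiveBLAzer B/G FRET substrate.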

[2] = qHTS assay for small molecule agonists of the antioxidant response element (ARE) signaling pathway (AID 743202; active = well fitted activation curve with a large enough effect in the signal ratio in the repeat runs, not every such curve was filed as active; inconclusive = weak or mixed curves, or effect the other way; inactive = no such curve, though single readings can be large or run the other way; the % refers to the signal ratio; also: potency is read from the fitted curve at half-maximal effect); settings: HepG2 ARE-bla reporter, beta-lactamase FRET, 16 h
Outline: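 Quantitative high-throughput format in HepG2 cells bearing an integrated ARE-beta-lactamase reporter. Compound exposure lasted 16 h at 37 C, and fluorescence was read 2 h after adding LiveBLAzer B/G substrate at room temperature.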

[3] = qHTS assay for small molecule activators of the heat shock response signaling pathway - cell viability counter screen (AID 743209; active = well fitted curve in the direction sought with a large enough effect in the repeat runs; inconclusive = weak or mixed curves; inactive = no such curve, though single readings can be large; an effect the other way counts as inactive or inconclusive; also: potency is read from the fitted curve at half-maximal effect; nearly all actives have a fitted effect of over 50% in size); settings: HSE-bla HeLa viability, CellTiter-Glo luminescence, 5 h; activity change, negative = cytotoxicity: at 62.6 µM (top of the series) unless noted
Outline: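 Quantitative HTS format, Tox21 10K library. HeLa cells carrying an HSE-driven beta-lactamase reporter were treated 5 h at 37 C, then assessed for viability by CellTiter-Glo luminescence.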

[4] = qHTS assay for small molecule activators of the heat shock response signaling pathway (AID 743210; active = well fitted activation curve with a large enough effect in the signal ratio in the repeat runs, with a control signal flat, not every such curve was filed as active; inconclusive = weak or mixed curves; the % refers to the signal ratio; also: potency is read from the fitted curve at half-maximal effect); settings: HeLa HSE-bla reporter, beta-lactamase ratio, 5 h; activation: at 62.6 µM (top of the series) unless noted
Outline: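 HeLa HSE-bla cells, overnight plating; cpd in DMSO 5 h, 37 C; LiveBLAzer B/G FRET substrate 2.5 h RT; fluorescence intensity read.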

[5] = target: Peroxisome proliferator-activated receptor delta (Homo sapiens) (UniProt Q03181); test: qHTS assay to identify small molecule agonists of the peroxisome proliferator-activated receptor delta (PPARd) signaling pathway (AID 743212); settings: HEK293H PPARd-UAS-bla, beta-lactamase FRET ratio, 17 h; activation: at 62.6 µM (top of the series) unless noted; also: % is scaled to controls: 0 for no effect and ±100 for the full control effect
Outline: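 HEK293H PPARd-bla cells; 5 h preincubation 37 C/5% CO2; compound (DMSO) 37 C; LiveBLAzer B/G FRET substrate 2 h RT; fluorescence intensity.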

[6] = qHTS assay to identify small molecule antagonists of the peroxisome proliferator-activated receptor delta (PPARd) signaling pathway - cell viability counter screen (AID 743213; active = well fitted curve in the direction sought with a large enough effect in the repeat runs; inconclusive = weak or mixed curves; inactive = no such curve, though single readings can be large; an effect the other way counts as inactive or inconclusive; also: potency is read from the fitted curve at half-maximal effect; nearly all actives have a fitted effect of over 50% in size); settings: PPARd-bla HEK293H viability, CellTiter-Glo luminescence, 17 h; viability change, negative = cytotoxic: at 62 µM (top of the series) unless noted
Outline: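 PPARd-bla HEK293H cells were treated with compounds plus agonist L165041 (300 nM final) for 17 h at 37 C. Viability was then read in the same wells by CellTiter-Glo luminescence after 30 min at room temperature.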

[7] = target: Bile acid receptor (Homo sapiens) (UniProt Q96RI1); test: qHTS assay to identify small molecule antagonists of the farnesoid-X-receptor (FXR) signaling pathway (AID 743217; active = well fitted inhibition curve with a large enough effect in the signal ratio in the repeat runs, not every such curve was filed as active; inconclusive = weak or mixed curves, or effect the other way; inactive = no such curve, though single readings can be large or run the other way; the % refers to the signal ratio; also: % is scaled to controls: 0 for no effect and ±100 for the full control effect); settings: HEK293T FXR-UAS-bla, beta-lactamase ratio, CDCA-stimulated, 16 h
Outline: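 Beta-lactamase reporter under UAS control in HEK 293T cells; compound exposure 16 h at 37 °C in the presence of chenodeoxycholic acid (50 uM final); signal from B/G FRET substrate after 2 h at room temperature.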

[8] = target: Peroxisome proliferator-activated receptor delta (Homo sapiens) (UniProt Q03181); test: qHTS assay to identify small molecule antagonists of the peroxisome proliferator-activated receptor delta (PPARd) signaling pathway (AID 743215; active = well fitted inhibition curve with a large enough effect in the signal ratio in the repeat runs, not every such curve was filed as active; inconclusive = weak or mixed curves, or effect the other way; inactive = no such curve, though single readings can be large or run the other way; the % refers to the signal ratio;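 also: cells stimulated with agonist L165041 at 300 nM final during compound exposure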; also: potency is read from the fitted curve at half-maximal effect); settings: HEK293H PPARd-UAS-bla, beta-lactamase FRET ratio, antagonist, 17 h
Outline: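 Antagonist-mode beta-lactamase reporter screen: HEK293H cells with UAS-bla under PPARd control, stimulated by 300 nM L165041 (final) alongside test compound for 17 h at 37 C, then FRET fluorescence after 2 h substrate incubation.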

[9] = target: Bile acid receptor (Homo sapiens) (UniProt Q96RI1); test: qHTS assay to identify small molecule agonists of the farnesoid-X-receptor (FXR) signaling pathway (AID 743220; active = well fitted activation curve with a large enough effect in the signal ratio in the repeat runs, not every such curve was filed as active; inconclusive = weak or mixed curves, or effect the other way; the % refers to the signal ratio; also: potency is read from the fitted curve at half-maximal effect); settings: HEK293T FXR-UAS-bla, beta-lactamase FRET ratio, 16 h; activation: at 62.6 µM (top of the series) unless noted
Outline: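 Beta-lactamase reporter under UAS control in GeneBLAzer FXR HEK 293T cells (5000/well) measured with LiveBLAzer FRET substrate after 2 h at room temperature. Compound exposure lasted 16 h at 37C.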

[10] = target: Vitamin D3 receptor (Homo sapiens) (UniProt P11473); test: qHTS assay to identify small molecule antagonists of the vitamin D receptor (VDR) signaling pathway (AID 743223; active = well fitted inhibition curve with a large enough effect in the signal ratio in the repeat runs, not every such curve was filed as active; inconclusive = weak or mixed curves, or effect the other way; inactive = no such curve, though single readings can be large or run the other way; the % refers to the signal ratio; also: potency is read from the fitted curve at half-maximal effect); settings: VDR-UAS-bla HEK293T, beta-lactamase FRET ratio, 16 h; activity change, negative = inhibition: at 61 µM (top of the series) unless noted
Outline: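 Antagonist mode: compound added to VDR-bla cells alongside agonist 1alpha,25-dihydroxyvitamin D3 (3 nM final), incubation 16 h at 37C. Read-out is LiveBLAzer FRET fluorescence, 2 h at room temperature.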

[11] = qHTS assay to identify small molecule agonists of the vitamin D receptor (VDR) signaling pathway - cell viability counter screen (AID 743224; active = well fitted curve in the direction sought with a large enough effect in the repeat runs; inconclusive = weak or mixed curves; inactive = no such curve, though single readings can be large; an effect the other way counts as inactive or inconclusive; also: potency is read from the fitted curve at half-maximal effect; nearly all actives have a fitted effect of over 50% in size); settings: VDR-bla HEK293T viability, CellTiter-Glo luminescence, 16 h; activity change, negative = cytotoxicity: at 62.6 µM (top of the series)
Outline: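 VDR-bla cell line, quantitative HTS format; 16 h compound incubation (37C, 5% CO2); ATP-based CellTiter-Glo luminescence measured in the reporter assay wells.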

[12] = qHTS assay for small molecule agonists of the antioxidant response element (ARE) signaling pathway - cell viability counter screen (AID 743203); settings: ARE-bla HepG2 viability, CellTiter-Glo luminescence, 16 h; viability change, negative = cytotoxic: at 73.3 µM (top of the series); also: potency is read from the fitted curve at half-maximal effect; nearly all actives have a fitted effect of over 55% in size
Outline: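 Cells (ARE-bla HepG2, 2,000/well) receive DMSO-dissolved compounds after a 5 hrs rest. Plates incubate 16 hrs at 37C/5% CO2. CellTiter-Glo luminescence is then recorded after 30 min at room temperature.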

[13] = target: Vitamin D3 receptor (Homo sapiens) (UniProt P11473); test: qHTS assay to identify small molecule agonists of the vitamin D receptor (VDR) signaling pathway (AID 743222); settings: HEK293T VDR-UAS-bla, beta-lactamase FRET ratio, 16 h; activation: at 63.5 µM (top of the series) unless noted; also: % is scaled to controls: 0 for no effect and ±100 for the full control effect
Outline: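 Agonist activity measured in VDR-bla reporter cells. Exposure 16 h, 37C, 5% CO2; detection by B/G FRET substrate, 2 h RT.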

[14] = qHTS assay to identify small molecule agonists of the peroxisome proliferator-activated receptor delta (PPARd) signaling pathway - cell viability counter screen (AID 743211; active = well fitted curve in the direction sought with a large enough effect in the repeat runs; inconclusive = weak or mixed curves; inactive = no such curve, though single readings can be large; an effect the other way counts as inactive or inconclusive; also: nearly all actives have a fitted effect of over 55% in size; also: potency is read from the fitted curve at half-maximal effect); settings: PPARd-bla HEK293H viability, CellTiter-Glo luminescence, 17 h; activity change, negative = cytotoxicity: at 62.6 µM (top of the series) unless noted
Outline: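 Viability was measured as CellTiter-Glo luminescence (30 min, room temperature) in the same wells as the beta-lactamase readout. GeneBLAzer PPARd UAS-bla HEK293H cells received compound after 5 h plating and were incubated 17 h at 37 C.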

[15] = qHTS assay to identify small molecule agonists of the farnesoid-X-receptor (FXR) signaling pathway - cell viability counter screen (AID 743218; active = well fitted curve in the direction sought with a large enough effect in the repeat runs; inconclusive = weak or mixed curves; inactive = no such curve, though single readings can be large; an effect the other way counts as inactive or inconclusive; also: nearly all actives have a fitted effect of over 45% in size; also: potency is read from the fitted curve at half-maximal effect); settings: FXR-bla HEK293T viability, CellTiter-Glo luminescence, 16 h; viability change, negative = cytotoxic: at 62.6 µM (top of the series) unless noted
Outline: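 In GeneBLAzer FXR-UAS-bla HEK 293T cells, compounds act for 16 h at 37 C. Cell viability is then scored in the reporter wells by CellTiter-Glo, 30 min at RT, luminescence.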

[16] = qHTS assay to identify small molecule antagonists of the farnesoid-X-receptor (FXR) signaling pathway - cell viability counter screen (AID 743221; active = well fitted cell-killing curve with a large enough effect in the repeat runs, not every such curve was filed as active; inconclusive = weak or mixed curves, or effect the other way; inactive = no such curve, though single readings can be large or run the other way; also: potency is read from the fitted curve at half-maximal effect; nearly all actives have a fitted effect of over 50% in size); settings: FXR-bla HEK293T viability, CellTiter-Glo luminescence, 16 h; activity change, negative = cytotoxicity: at 62.6 µM (top of the series) unless noted
Outline: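 Cytotoxicity counter screen run in the FXR-bla reporter wells: HEK 293T cells exposed to compound with 50 uM (final) chenodeoxycholic acid for 16 h, 37 C, then viability measured by CellTiter-Glo luminescence after 30 min, room temperature.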

[17] = qHTS assay to identify small molecule antagonists of the peroxisome proliferator-activated receptor gamma (PPARg) signaling pathway - cell viability counter screen (AID 743194; active = well fitted curve in the direction sought with a large enough effect in the repeat runs; inconclusive = weak or mixed curves; inactive = no such curve, though single readings can be large; an effect the other way counts as inactive or inconclusive; also: % is scaled to controls: 0 for no effect and ±100 for the full control effect; nearly all actives have a fitted effect of over 55% in size); settings: PPARg-bla HEK293H viability, CellTiter-Glo luminescence, 17 h, co-treated with 50 nM rosiglitazone; activity change, negative = cytotoxicity: at 62.6 µM (top of the series) unless noted
Outline: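 Viability was measured as CellTiter-Glo luminescence in GeneBLAzer PPARg UAS-bla HEK293H cells. These cells had been exposed 17 h at 37 C to compounds together with rosiglitazone at 50 nM final, with the beta-lactamase readout taken in the same wells.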

[18] = activation: at 73.3 µM (top of the series) unless noted
[19] = ratio activity, negative = inhibition: at 62 µM (top of the series) unless noted
[20] = activity change, negative = inhibition: at 62.6 µM (top of the series) unless noted
Tags tell the direction and shape of the fitted curve or compound fluorescence and quenching.

Chain of UniProt P37231 (P37231 whole entry, looked up): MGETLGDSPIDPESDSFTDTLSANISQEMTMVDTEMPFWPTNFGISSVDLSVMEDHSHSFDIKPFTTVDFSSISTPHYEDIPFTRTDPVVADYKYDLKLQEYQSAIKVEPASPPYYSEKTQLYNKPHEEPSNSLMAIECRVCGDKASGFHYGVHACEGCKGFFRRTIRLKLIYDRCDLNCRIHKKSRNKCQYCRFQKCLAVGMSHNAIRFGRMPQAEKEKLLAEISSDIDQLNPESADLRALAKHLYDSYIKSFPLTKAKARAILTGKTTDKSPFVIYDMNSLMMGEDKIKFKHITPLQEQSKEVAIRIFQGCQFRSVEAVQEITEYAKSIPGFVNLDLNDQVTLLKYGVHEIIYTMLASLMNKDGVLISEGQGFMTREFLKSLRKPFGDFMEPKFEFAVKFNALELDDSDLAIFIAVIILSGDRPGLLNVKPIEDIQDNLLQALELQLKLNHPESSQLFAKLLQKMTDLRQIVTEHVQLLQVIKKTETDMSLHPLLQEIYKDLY
Chain of UniProt Q96RI1 (Q96RI1 whole entry, looked up): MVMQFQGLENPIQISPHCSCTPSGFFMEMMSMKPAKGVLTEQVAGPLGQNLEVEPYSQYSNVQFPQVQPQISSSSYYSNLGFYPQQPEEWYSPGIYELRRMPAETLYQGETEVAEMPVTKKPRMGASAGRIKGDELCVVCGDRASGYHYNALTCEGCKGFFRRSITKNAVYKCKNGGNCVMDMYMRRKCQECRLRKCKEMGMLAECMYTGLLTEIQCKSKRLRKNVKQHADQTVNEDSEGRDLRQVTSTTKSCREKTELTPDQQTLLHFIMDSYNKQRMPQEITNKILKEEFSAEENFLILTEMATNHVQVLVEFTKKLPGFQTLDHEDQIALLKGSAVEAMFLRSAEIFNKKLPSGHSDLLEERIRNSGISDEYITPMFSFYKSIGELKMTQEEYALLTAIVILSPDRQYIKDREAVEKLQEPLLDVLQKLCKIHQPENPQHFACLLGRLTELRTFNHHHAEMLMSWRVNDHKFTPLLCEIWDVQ
Chain of UniProt P11473 (P11473 whole entry, looked up): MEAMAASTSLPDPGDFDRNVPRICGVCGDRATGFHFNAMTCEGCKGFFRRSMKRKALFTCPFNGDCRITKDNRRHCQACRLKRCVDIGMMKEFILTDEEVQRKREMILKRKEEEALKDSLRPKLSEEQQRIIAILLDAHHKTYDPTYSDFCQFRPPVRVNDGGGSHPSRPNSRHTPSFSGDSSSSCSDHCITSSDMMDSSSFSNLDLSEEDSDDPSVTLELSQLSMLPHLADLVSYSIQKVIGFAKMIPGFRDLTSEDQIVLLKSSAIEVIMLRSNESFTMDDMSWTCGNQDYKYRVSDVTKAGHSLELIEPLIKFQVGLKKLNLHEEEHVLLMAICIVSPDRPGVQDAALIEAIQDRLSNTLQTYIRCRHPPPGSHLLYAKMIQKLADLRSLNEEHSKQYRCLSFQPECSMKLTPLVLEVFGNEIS
Chain of UniProt Q03181 (Q03181 whole entry, looked up): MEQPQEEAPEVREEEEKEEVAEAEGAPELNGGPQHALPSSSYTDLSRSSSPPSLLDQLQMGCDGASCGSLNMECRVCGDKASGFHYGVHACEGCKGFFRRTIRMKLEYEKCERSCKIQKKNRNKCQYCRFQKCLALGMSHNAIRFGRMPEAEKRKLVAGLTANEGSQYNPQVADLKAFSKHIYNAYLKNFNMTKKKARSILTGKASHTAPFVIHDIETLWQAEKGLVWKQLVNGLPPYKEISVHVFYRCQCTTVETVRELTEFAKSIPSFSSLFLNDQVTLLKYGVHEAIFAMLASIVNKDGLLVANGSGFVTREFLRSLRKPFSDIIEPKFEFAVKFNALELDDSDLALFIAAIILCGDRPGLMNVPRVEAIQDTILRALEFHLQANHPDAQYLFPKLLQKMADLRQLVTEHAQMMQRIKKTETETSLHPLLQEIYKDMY

O=C(O)C[C@H](NC(=O)OCc1ccccc1)C(=O)O
inconclusive: Potency [2, 18] 19.3 µM | Potency [3] 19.4 µM [rising, full curve, poor fit]
inactive: Potency [1]

Oc1ccc(C2CNCCc3c2cc(O)c(O)c3Cl)cc1 (centres undefined)
inconclusive: ratio activity, negative = inhibition [1] 11.8% | Potency [2, 18] 29.8 µM [rising, partial curve, poor fit] | Potency [3] 0.0008 µM [cytotoxic]

O=C1OC(=O)c2c(Br)c(Br)c(Br)c(Br)c21
inconclusive: ratio activity, negative = inhibition [1] 3.19% | activation [2, 18] 16.6%

O=C1c2ccccc2C(=O)C1c1ccc(Br)cc1
inconclusive: Potency [1] 29.8 µM [inhibitor] | Potency [2, 18] 13.3 µM | Potency [4] 26.6 µM [activator, partial curve, poor fit] | activation [5] -13.8%

CCc1ccc(C(c2ccc(CC)cc2)C(Cl)Cl)cc1
inconclusive: ratio activity, negative = inhibition [1] 2.84% | activation [2, 18] -12.6% | Potency [6] 21.9 µM [rising, full curve] | activity change, negative = inhibition ([7]; at 62.6 µM (top of the series)) -13% | activity change, negative = inhibition ([7]; at 81.1 µM (top of the series)) -23.8%
inactive: activation ([2]; at 94.8 µM (top of the series)) -2.72%

C=CC(=O)[O-].C=CC(=O)[O-].[Zn+2]
inconclusive: ratio activity, negative = inhibition [1] 2.13% | Potency [2, 18] 18.9 µM [rising, partial curve]

CC[C@H](C)COC(=O)/C=C/c1ccc(N=Cc2ccc(OC)cc2)cc1
inconclusive: Potency [1] 54.9 µM [fluorescent, partial curve, poor fit] | activation [2, 18] 8.62% | activation [5] -2.45% | Potency [6] 61.6 µM [cytotoxic, single point] | Potency [8, 19] 61.6 µM [inhibitor, single point] | activation [9] 5.76% | Potency [10] 54.9 µM [inhibitor, single point] | Potency [11] 54.9 µM [cytotoxic, single point]
inactive: Potency [4] | Potency [7, 20]

C=CCN1CCc2nc(N)sc2CC1
inconclusive: Potency [12] 11.9 µM [rising, partial curve, poor fit]
inactive: Potency [1] | Potency [2, 18] | Potency [13]

CC(=O)CC(=O)Nc1ccc(S(=O)(=O)O)cc1
inactive: Potency [1] | Potency [2, 18] | Potency [4]

O=C=Nc1ccc(Cl)c(Cl)c1
inactive: Potency [4] | Potency [5]
active: Potency [15] 30.4 µM
inconclusive: Potency [1] 3.41 µM [inhibitor, full curve] | Potency [2, 18] 47.8 µM [rising, partial curve] | Potency [14] 42.9 µM [cytotoxic, partial curve] | Potency [6] 24.2 µM [cytotoxic, partial curve] | Potency [16] 42.9 µM [falling, partial curve] | Potency [11] 7.64 µM [cytotoxic, partial curve, poor fit]

C=CCNc1nc(NCC=C)nc(N2CCN(C(c3ccc(F)cc3)c3ccc(F)cc3)CC2)n1
inconclusive: Potency [2, 18] 8.41 µM [rising, partial curve] | Potency [15] 10.6 µM [rising, partial curve, poor fit]
inactive: Potency [1] | Potency [4] | Potency [7, 20] | Potency [9]

O=C1NC(=O)c2ccccc21
inconclusive: Potency [6] 2.19 µM [cytotoxic, single point] | viability change, negative = cytotoxic [15] 35.7% | Potency [9] 19.5 µM [rising, partial curve] | Potency [10] 3.09 µM [inhibitor, partial curve, poor fit] | Potency [11] 61.7 µM [cytotoxic, partial curve, poor fit]
inactive: Potency [1] | Potency [17]

CC(=O)OCC[N+](C)(C)C
inactive: Potency [1] | Potency [2, 18]

O=C(O)c1cccc(C(=O)O)c1
inactive: Potency [14] | ratio activity, negative = inhibition ([8]; at 80.4 µM (top of the series)) -0.606% | activity change, negative = inhibition ([7]; at 81.1 µM (top of the series)) 6.94% | Potency [15]
inconclusive: ratio activity, negative = inhibition [1] 5.49% [at 81.1 µM] | activation ([2]; at 73.3 µM (top of the series)) -11.4% | activation ([2]; at 94.8 µM (top of the series)) -11% | ratio activity, negative = inhibition [8, 19] 2.06% | activity change, negative = inhibition [7, 20] -0.134%

CC[C@H]1OC(=O)[C@H](C)[C@@H](O[C@H]2C[C@@](C)(OC)[C@@H](O)[C@H](C)O2)[C@H](C)[C@@H](O[C@@H]2O[C@H](C)C[C@H](N(C)C)[C@H]2O)[C@](C)(O)C[C@@H](C)C(=O)[C@H](C)[C@@H](O)[C@]1(C)O
inconclusive: ratio activity, negative = inhibition [1] 1.73% | Potency [12] 52.9 µM [cytotoxic, single point] | Potency [3] 16.9 µM [cytotoxic, partial curve, poor fit]
inactive: Potency [2, 18]

CCCCCCCCCCCCCOS(=O)(=O)O
inconclusive: Potency [1] 61.6 µM [inhibitor, single point] | Potency [2, 18] 68.6 µM | Potency [4] 54.9 µM [falling, single point] | Potency [14] 54.9 µM [cytotoxic, single point] | ratio activity, negative = inhibition [8, 19] 0.545% | Potency [15] 49 µM [cytotoxic, single point] | Potency [16] 54.9 µM [falling, single point] | activation [13] 13.6% | Potency [10] 49 µM [activator, single point] | Potency [11] 49 µM [cytotoxic, single point]
